The values below come from patent US11673947B2, “Target tissue-specific antigen-binding molecule” (Chugai Seiyaku Kabushiki Kaisha, priority 2012, dated 2023).

The term Kd denotes the equilibrium constant for the complex coming apart.

In assay [1] the target is T1, IL-6R (Homo sapiens, UniProt P08887).
T1 sequence (P08887 20-357 limits assumed): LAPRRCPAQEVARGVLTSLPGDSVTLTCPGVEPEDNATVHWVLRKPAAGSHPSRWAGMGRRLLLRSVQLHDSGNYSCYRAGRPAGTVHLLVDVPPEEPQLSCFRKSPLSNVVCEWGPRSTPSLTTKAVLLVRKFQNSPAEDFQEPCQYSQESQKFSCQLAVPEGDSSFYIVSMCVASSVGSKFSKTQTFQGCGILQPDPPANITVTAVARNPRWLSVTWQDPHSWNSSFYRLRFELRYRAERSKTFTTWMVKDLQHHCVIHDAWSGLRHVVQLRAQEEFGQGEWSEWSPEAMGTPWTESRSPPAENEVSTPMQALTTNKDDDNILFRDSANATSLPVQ
Kind of assay: Biacore T200, binding of ATP/adenosine-dependent antibodies to IL-6R with ATP, ADP, AMP, cAMP or adenosine. Particulars: 1 mM ATP; IL-6R immobilized on sensor chip CM5, antibody as analyte; 25° C., pH 7.4; from plot of equilibrium value against antibody concentration; read-out: Dissociation constant KD. As to the method: Biacore T200 (GE Healthcare) was used to evaluate the effect of various small molecules on the antigen-antibody reaction of IL-6R with 9 ATP/adenosine-dependent antibodies (6RAD2C1-4_001, 6RAD2C1-4_005, 6RAD2C1-4_011, 6RAD2C1-4_026, 6RAD2C1-4_030, 6RAD2C1-4_042, 6RAD2C1-4_076, 6RDL3C1-4_085, and 6RDL3C5-4_011) obtained from the library. The running buffer was used: 20 mmol/1 ACES, 150 mmol/l NaCl, 0.05% (w/v) Tween20, pH 7.4. Assay was carried out at 25° C. IL-6R was immobilized onto sensor chip CM5 by amine coupling; and the antibodies were allowed to interact as analyte for 120 seconds, and changes in the amount of binding were observed. For dilution of the antibodies, the running buffer or the running buffer containing any one of ATP, ADP, AMP, cAMP, and adenosine (ADO) were used. The final concentration of each small molecule and the final concentration of each antibody were adjusted to 1 mM and 1 μM, respectively. Meanwhile, under the 1 mM ATP condition, assay was carried out with a series of stepwise antibody concentrations. The dissociation constant KD (mol/L) of each clone for IL-6R was calculated from a plot of equilibrium value against antibody concentration. The parameters were calculated using the Biacore T200 Evaluation Software (GE Healthcare).
A general note: In SPR one partner is held on a chip, and binding of the other changes the refractive index at the surface.

In assay [2] the target is human IL6 (Homo sapiens, UniProt P05231). Format: binding. Also on record: purchased Kamakura Techno-Science, Inc. Particulars: antibody immobilized, 1 μmol/l IL-6 as analyte, 60 seconds, 25° C. As to the method: Using Biacore T200 (GE Healthcare), A11 was analyzed for its interaction with human IL-6 (Kamakura Techno-Science, Inc.) in antigen-antibody reaction. Sensor chip CM5 (GE Healthcare) was immobilized with an appropriate amount of protein A/G (Invitrogen) by amine coupling. Antibodies of interest were captured by the chip to allow interaction to IL-6 as an antigen. The two types of running buffers used were 10 mmol/1 ACES, 150 mmol/l NaCl, 0.05% (w/v) Tween20, 100 μmol/l kynurenine, pH 7.4, and 10 mmol/1 ACES, 150 mmol/l NaCl, 0.05% (w/v) Tween20, pH 7.4. The interaction with IL-6 as an antigen was assessed at 37° C. The buffer used to dilute IL-6 was the same running buffer as described above.
A diluted solution of human IL-6 and a running buffer as a blank were injected at a flow rate of 5 μl/min for three minutes to allow interaction of human IL-6 with A11 captured on the sensor chip. […] The dissociation constant KD (M) of A11 was calculated for human IL-6 based on the association rate constant ka (1/Ms) and dissociation rate constant kd (1/s), both of which are kinetic parameters calculated from the sensorgram obtained by the measurement. Each parameter was calculated using the Biacore T200 Evaluation Software (GE Healthcare).
Then, the effect of kynurenine concentration on antigen-antibody reaction between A11 and human IL-6 was assessed using Biacore T200 (GE Healthcare). […]

Chain of UniProt P05231 (P05231 30-212): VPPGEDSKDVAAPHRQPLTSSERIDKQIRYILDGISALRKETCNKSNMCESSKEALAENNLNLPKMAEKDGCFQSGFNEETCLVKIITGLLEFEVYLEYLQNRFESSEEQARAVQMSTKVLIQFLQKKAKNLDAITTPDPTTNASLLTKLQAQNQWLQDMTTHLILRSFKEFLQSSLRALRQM

B1: 6RAD2C1-4_42 (antibody)
heavy: EVQLVESGGDLVKPGGGLRLSCAASGFTFSSYTMNWVRQAPGKGLEWVSSISSRSSYASYADSVKGRFTISRDNAKNSLYLQMNSLRAEDTAVYYCARYGRLNSHNWVFDYWGQGTLVTVSS[human IgG1 constant region not written out]
light: QSALTQPPSASGSPGQTVTISCTGTSTDVGFYNYVSWYQQHPGKAPKLMIYQGSKKPSGVPDRFSGSKSGNTASLTVSGLQAEDEADYFCSTRATTKGVLFGGGTKLTVLRTVAAPSVFIFPPSDEQLKSGTASVVCLLNNFYPREAKVQWKVDNALQSGNSQESVTEQDSKDSTYSLSSTLTLSKADYEKHKVYACEVTHQGLSSPVTKSFNRGEC
Take B1: the Kd in assay [1] was 250 nM.

B2: 6RDL3C5-4_11 (antibody)
heavy: EVQLVESGGDLVKPGGGLRLSCAASGFTFSSHTMNWVRQAPGKGLEWVSSISSRSGYIFYADSVKGRFTISRDNAKNSLYLQMNSLRAEDTAVYYCARFGKLNHMNWVFDYWGQGTLVTVSS[human IgG1 constant region not written out]
light: QSALTQPPSASGSPGQTVTISCTGTSTDVGTYNYVSWYQQHPGKAPKLMIYQVSKRPSGVPDRFSGSKSGNTASLTVSGLQAEDEADYFCSTRAITRGVAFGGGTKLTVLRTVAAPSVFIFPPSDEQLKSGTASVVCLLNNFYPREAKVQWKVDNALQSGNSQESVTEQDSKDSTYSLSSTLTLSKADYEKHKVYACEVTHQGLSSPVTKSFNRGEC
As for B2, the Kd in assay [1] was determined as 130 nM.

B3: H01: human IL-6-binding antibody derived from a library, control; SEQ ID NOs: 36 and 37 (antibody, listed as Homo sapiens)
heavy: QVQLVLSGAEVKKPGASVMVSCKASGYTFTDYYMHWVRQAPGQGLEWMGWINPQSGDTHYAQKFQGRVTMTRDTSVSTGYMQLSSLGSDDTAIYYCARGSLITAAGPPPFEHWGQGTMVTVSS[human IgG1 constant region not written out]
light: SYELTQPPSMSVSPGQTATMPCSGNGLGDKFVYWYQQKPGHSPVAVIYQDAKRPSGVPERFSGSNSGGSTATLTISGAQAMDEADYYCQAWDSGTAVFGTGTRLSILGQPKAAPSVTLFPPSSEELQANKATLVCLISDFYPGAVTVAWKADSSPVKAGVETTTPSKQSNNKYAASSYLSLTPEQWKSHRSYSCQVTHEGSTVEKTVAPTECS
On to B3, for which the “effect of kynurenine concentration on amount of IL-6 binding” value in assay [2] is given as “not altered even if the kynurenine concentration changes”.
